We go through 37 molecules from the supplement of paper PMC5919970.

Counter-ions that a name gives are not always drawn. The full ranking holds about 2,000 compounds; the median of “fractional viability relative to vehicle” is about 0.92, and the lowest 2% start at about 0.11. The list shows a part of the results.

The assay concerns TYKNU. The assay can be described thus: fractional viability relative to vehicle; TYKNU is a high-grade serous ovarian cancer line; higher = less growth inhibition. The settings on record: 72 h, genotype: OPA1 knockout (sgOPA1 #2). In short, it runs like this: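 TYKNU control cells or lentiCRISPRv2 knockout derivatives were seeded at 500 cells per well into drug-stamped 384-well plates holding a ~2100-compound library at 2 or 10 μM, in duplicate. Cells were grown at 37 °C in 5% CO2 in RPMI 1640 with 10% FBS, and drug treatment lasted 72 h. Viability was read by Cell Titer Glo luminescence. Duplicate treatment wells were averaged and normalised to duplicate control wells from the same plate position.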

Molecule `O=S(=O)(O)CCSSCCS(=O)(=O)O` [Dimesna] displayed a fractional viability (2uM) of 1.09 and a fractional viability (10uM) of 1.15.

With `CO[C@H]1C(=O)[C@]2(C)[C@@H](OC)C[C@H]3OC[C@@]3(OC(C)=O)[C@H]2[C@H](OC(=O)c2ccccc2)[C@]2(O)C[C@H](OC(=O)[C@H](O)[C@@H](NC(=O)OC(C)(C)C)c3ccccc3)C(C)=C1C2(C)C` [Cabazitaxel], the fractional viability reads like this: (2uM) 0.752; (10uM) 0.531.

Take `CCCCOc1ccc(CC(=O)NO)cc1` [Bufexamac]: the fractional viability amounted to 1.04 (2uM) and 0.893 (10uM).

`Cc1ccc(O)c([C@H](CCN(C(C)C)C(C)C)c2ccccc2)c1` [Tolterodine tartrate]: the fractional viability runs as follows: (2uM) 0.966; (10uM) 0.849.

With `Cc1cc(C)cc(NC(=O)Cc2ccc(OC(C)(C)C(=O)O)cc2)c1` [Efaproxiral Sodium], the fractional viability runs as follows: (2uM) 0.919; (10uM) 1.03.

On to `CCN1/C(=C/C(C)=O)Sc2ccc(OC)cc21`, for which the fractional viability reads like this: (2uM) 0.965; (10uM) 0.87.

Consider `CCCCC(C=O)NC(=O)C(CC(C)C)NC(=O)C(CC(C)C)NC(C)=O` (centres undefined), for which the fractional viability by setting is: (2uM) 0.8; (10uM) 0.939.

In the case of `CCCCCCCCCCCCCCCCO` [1-Hexadecanol], the fractional viability runs as follows: (2uM) 0.985; (10uM) 0.861.

Take `CCOc1ccc(Cc2cc([C@@H]3O[C@H](CO)[C@@H](O)[C@H](O)[C@H]3O)ccc2Cl)cc1` [Dapagliflozin]: the fractional viability is, setting by setting: (2uM) 1.01; (10uM) 0.974.

Regarding `CN(C)CCN1C(=O)c2cccc3cc(N)cc(c23)C1=O` [Amonafide], the fractional viability by setting is: (2uM) 0.909; (10uM) 0.627.

On to `O=c1cc(CN2CCOCC2)occ1OCCCCCSc1ccnc2cc(C(F)(F)F)ccc12`, for which the fractional viability runs as follows: (2uM) 0.828; (10uM) 0.915.

Consider `O[C@@H]1CO[C@H]2[C@@H]1OC[C@@H]2O` [Isosorbide], for which the fractional viability was 1.06 (2uM) and 0.809 (10uM).

Turning to `Cc1c(O)cccc1C(=O)N[C@@H](CSc1ccccc1)[C@H](O)CN1C[C@H]2CCCC[C@H]2C[C@H]1C(=O)NC(C)(C)C` [Nelfinavir Mesylate], the fractional viability was 1.07 (2uM) and 0.781 (10uM).

Regarding `Nc1ccn([C@@H]2O[C@H](CO)[C@@H](O)[C@H]2O)c(=O)n1` [Cytidine], the fractional viability runs as follows: (2uM) 0.886; (10uM) 1.09.

As for `CC(C)NCCCn1c(Sc2cc3c(cc2I)OCO3)nc2c(N)ncnc21`, the fractional viability (2uM) worked out at 0.428 and the fractional viability (10uM) turned out to be 0.48.

On to `CN(C)CCC(c1ccccc1)c1ccccn1` (centres undefined) [Pheniramine Maleate], for which the fractional viability by setting is: (2uM) 1.14; (10uM) 0.886.

As to `COc1ccc2cc1Oc1ccc(cc1)C[C@H]1c3c(cc4c(c3Oc3cc5c(cc3OC)CCN(C)[C@@H]5C2)OCO4)CCN1C` [Cepharanthine], the fractional viability is, setting by setting: (2uM) 0.99; (10uM) 0.289.

Turning to `NC1=N[C@@]2(c3cc(NC(=O)c4ccc(F)cn4)ccc3F)COC[C@H]2CS1`, the fractional viability was 1.08 (2uM) and 1 (10uM).

As to `Cc1c(OCC(F)(F)F)ccnc1C[S+]([O-])c1nc2ccccc2[nH]1` (centres undefined) [Lansoprazole], the fractional viability (2uM) was 1.06 and the fractional viability (10uM) was 0.987.

Take `O=C1CCc2c(ccc3ccccc23)O1` [Splitomicin]: the fractional viability is, setting by setting: (2uM) 0.879; (10uM) 0.803.

For the molecule `CC[C@@H]1C(=O)N(C)c2cnc(Nc3ccc(C(=O)NC4CCN(C)CC4)cc3OC)nc2N1C1CCCC1`, the fractional viability (2uM) came to 0.822 and the fractional viability (10uM) came to 0.144.

`O=S(=O)(N=Cc1c(O)ccc2ccccc12)c1cccs1` had a fractional viability (2uM) of 0.704 and a fractional viability (10uM) of 0.914.

For the molecule `CCS(=O)(=O)N1CCC([C@@H](C)n2c(C)c(C(=O)NCc3c(OC)cc(C)[nH]c3=O)c3ccccc32)CC1`, the fractional viability runs as follows: (2uM) 0.776; (10uM) 0.879.

Turning to `Fc1ccc(CNc2ncnc3ccc(F)cc23)cc1` [Spautin-1], the fractional viability was 0.813 (2uM) and 0.799 (10uM).

`CN(C)[C@@H](CCOc1cccc2ccccc12)c1ccccc1` [Dapoxetine HCl]: the fractional viability is 1.04 (2uM) and 0.755 (10uM).

For the molecule `CCCC(CCC)C(=O)O` [Valproic acid sodium salt (Sodium valproate)], the fractional viability is, setting by setting: (2uM) 1.05; (10uM) 1.01.

As for `CCCC(CCC)C(=O)O` [Divalproex Sodium], the fractional viability (2uM) was found to be 0.99 and the fractional viability (10uM) turned out to be 1.16.

For the molecule `CC(C)c1noc(N2CCC(COc3ccc(-c4ccc(S(C)(=O)=O)cc4)nc3)CC2)n1`, the fractional viability runs as follows: (2uM) 1.01; (10uM) 1.

For `O=C(NC1CCNCC1)c1n[nH]cc1NC(=O)c1c(Cl)cccc1Cl`, the fractional viability reads like this: (2uM) 0.667; (10uM) 0.685.

Turning to `O=CN1CC/C(=C/c2ccc3c(c2)OCO3)C1=O`, the fractional viability runs as follows: (2uM) 0.774; (10uM) 0.838.

Consider `CC[C@H](Nc1ncnc2[nH]cnc12)c1nc2cccc(F)c2c(=O)n1-c1ccccc1` [CAL-101 (Idelalisib, GS-1101)], for which the fractional viability (2uM) came to 1.06 and the fractional viability (10uM) came out at 0.992.

`CC(C)(C)c1cc(/C=C(\C#N)C(N)=S)cc(C(C)(C)C)c1O` [Tyrphostin AG 879] gave a fractional viability (2uM) of 0.693 and a fractional viability (10uM) of 0.4.

On to `CCC(=O)NCC[C@@H]1CCc2ccc3c(c21)CCO3` [Ramelteon], for which the fractional viability came to 1.16 (2uM) and 0.907 (10uM).

Regarding `COC1=CC(=O)C[C@@H](C)[C@]12Oc1c(Cl)c(OC)cc(OC)c1C2=O` [Griseofulvin], the fractional viability is 0.824 (2uM) and 0.66 (10uM).

For the molecule `NS(=O)(=O)NCCNc1nonc1/C(=N/O)Nc1ccc(F)c(Br)c1`, the fractional viability (2uM) stood at 0.817 and the fractional viability (10uM) turned out to be 0.783.

For `O[C@@H](COc1cccc2ncccc12)CN1CCN(C2c3ccccc3[C@@H]3[C@H](c4ccccc42)C3(F)F)CC1` (some centres undefined), the fractional viability runs as follows: (2uM) 1.2; (10uM) 0.742.

On to `O=S(=O)(NCCNC/C=C/c1ccc(Br)cc1)c1cccc2cnccc12`, for which the fractional viability runs as follows: (2uM) 0.945; (10uM) 0.914.
